In PubChem BioAssay AID504466 (National Center for Advancing Translational Sciences (NCATS), 2011):
About 4,200 (1.3%) of roughly 330,000 compounds were called active. The inconclusive results got no clear call from the source; some entries with a clear call stand among them for comparison. Calls follow the shape of the dose curve; as a rule, active = well fitted activation curve with a large enough effect; inconclusive = small, poorly fitted or top-dose-only effect; inactive = no such curve, though single readings can be large or run the other way. Where the call is inconclusive, the potency comes from a doubtful curve fit.

Assay: qHTS screen for small molecules that induce genotoxicity in human embryonic kidney (HEK293T) cells expressing luciferase-tagged ELG1; also: nearly all actives have a fitted effect of over 60% in size
Details: HEK293T ELG1-luciferase reporter, luminescence, 16 h; series mostly up to 46 µM
Outline: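 Cells (2,000/well) expressing the ELG1-luciferase fusion are dosed by pin tool and kept 16 hr at 37 °C, 5% CO2. Signal comes from ONE-Glo luciferase reagent after 30 min at room temperature.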
Potency is read from the fitted curve at half-maximal effect; tags tell the direction and shape of the fitted curve.

Row | Structure (SMILES) | Potency
1 | Cc1cccc(NC(=O)Nc2c(C)[nH]c(=O)[nH]c2=O)c1C | inactive
2 | Cc1ccc(F)cc1NC(=O)CSc1nnc(CNC(=O)c2ccco2)n1C | inactive
3 | CCOC(=O)C1CCN(CC(=O)N(CC(C)C)c2c(N)n(CC(C)C)c(=O)[nH]c2=O)CC1 | inconclusive: 0.164 µM [activator, full curve]
4 | O=C(NC(Cc1c[nH]c2ccccc12)C(=O)N/N=C/c1cccnc1)c1cccs1 (centres undefined) | inactive
5 | COc1cc(/C(C)=C/c2ccccc2)c2c(c1)oc1ccccc12 | inactive
6 | Cc1occc1-c1nc(-c2ccncc2)no1 | active: 18.4 µM
7 | C/C(=N\NC(=O)c1ccncc1)C12CC3CC(CC(C3)C1)C2 | inactive
8 | Cc1ccc(C(=O)CSc2n[nH]c(C)n2)cc1 | inconclusive: 20.6 µM [activator, partial curve, poor fit]
9 | O=C(Nc1ccc2c(c1)CCC2)c1cccc(F)c1 | active: 8.2 µM
10 | O=C(COc1ccc(Br)cc1)Nc1ccc(N2CCOCC2)cc1N1CCOCC1 | inconclusive: 32.6 µM [activator, partial curve, poor fit]
11 | COc1ccc(-c2nnc(SCC(=O)c3cccs3)o2)c(OC)c1 | inconclusive: 25.9 µM [activator, single point]
12 | COc1cc(/C=N/NC(=O)CSc2ccccn2)ccc1O | inactive
13 | COc1ccc(OC)c(C2=Nn3c(nnc3-c3cc(OC)c(OC)c(OC)c3)SC2)c1 | inactive
14 | Cc1ccc2cc(CCNC(=O)c3cccs3)c(=O)[nH]c2c1 | inconclusive: 14.6 µM [activator, partial curve]
15 | CCN(CC)CCNC(=O)c1ccc(Sc2ccc(Cl)cc2)c(NC(C)=O)c1 | inactive
16 | CCOC(=O)C(c1ccccc1)C(Nc1cc(C(F)(F)F)cc(C(F)(F)F)c1)c1ccccn1 (centres undefined) | inactive
17 | Cc1cc(NC(=O)c2ccc(C)o2)no1 | inconclusive: 20.6 µM [activator, single point]
18 | CN1C(=O)/C(=C/C=C2\SCCN2C)SC1=S | inconclusive: 3.66 µM [activator, full curve]
19 | O=C(Nc1ccc(-c2cn3c(n2)SCC3)cc1)c1ccco1 | inconclusive: 6.51 µM [activator, partial curve]
20 | CC(C)(C)c1ccc(/C=C/C(=O)Nc2nncs2)cc1 | active: 2.59 µM
21 | COc1ccc(NC(=O)c2cc(F)cc(F)c2)cc1Cl | inconclusive: 7.94 µM [activator, partial curve, poor fit]
22 | CCN(CC)S(=O)(=O)c1ccc(Nc2nc3ccccc3n3nnnc23)cc1 | inconclusive: 7.31 µM [activator, partial curve]
23 | CC(C)C(NC(=O)c1ccccc1)C(=O)OCC(=O)N1CCCCC1 (centres undefined) | inactive
24 | Cc1ccc2oc(C(=O)N(C)Cc3ccon3)c(C)c2c1 | active: 9.2 µM
25 | C/C(=N\NC(=O)CSCc1ccc(Cl)cc1)c1ccc(NC(=O)c2ccccc2)cc1 | inconclusive: 20.6 µM [activator, single point]

Row | Structure (SMILES) | Potency
26 | Cc1ccc(-n2cc3ccc([N+](=O)[O-])cc3n2)cc1 | active: 2.91 µM
27 | O=C(N/N=C/c1ccc(Cl)cc1Cl)c1n[nH]c2c1CCCC2 | inconclusive: 18.4 µM [activator, partial curve]
28 | Cn1c(SCc2ccccc2)nnc1-c1ccc2c(c1)OCO2 | active: 18.4 µM
29 | CNC(C)C#Cc1ccc2c(=O)c3c(OC)cccc3oc2c1 (centres undefined) | inconclusive: 13 µM [activator, partial curve]
30 | COc1cc(C)ccc1OCCCOc1ccccc1Br | inconclusive: 16.4 µM [activator, single point]
31 | Cc1ccc(NC(=O)c2ccc(=O)[nH]c2)cc1S(=O)(=O)N1CCCCCC1 | inactive
32 | O=C1N=C(N2CCCCC2)S/C1=C/C1=Cc2ccccc2OC1 | inconclusive: 20.6 µM [activator, partial curve, poor fit]
33 | c1ccc(CCn2nnc3ccccc32)cc1 | inconclusive: 18.3 µM [activator, partial curve]
34 | C/C(=N\Nc1cccc(C(=O)O)c1)c1cc2ccccc2o1 | inconclusive: 20.6 µM [activator, single point]
35 | CC1(c2ccccc2)NC(=O)N(CC(=O)NNC(=O)c2ccccc2)C1=O (centres undefined) | inactive
36 | O=C(NC1CCCCC1)c1ccc(CS(=O)(=O)c2ccc(Cl)cc2)o1 | inactive
37 | CC1CN(S(=O)(=O)c2ccc(C(=O)N(CCCN(C)C)c3nc4cc5c(cc4s3)OCCO5)cc2)CC(C)O1 (centres undefined) | inconclusive: 25.9 µM [activator, partial curve, poor fit]
38 | CC(NC(=O)c1cccc(S(=O)(=O)N2CCN(Cc3ccccc3)CC2)c1)c1ccc(Br)cc1 (centres undefined) | inactive
39 | c1ccc(CNc2ncnc3c2cnn3-c2ccccc2)cc1 | inconclusive: 7.31 µM [activator, single point]
40 | O=C(Nc1cccc(-c2nc3ccccc3s2)c1)c1cccs1 | inactive
41 | Cc1ccc2c(c1)sc[n+]2Cc1ccccc1 | inconclusive: 16.4 µM [activator, partial curve]
42 | CC(C)N(C(=O)[C@H]1C[C@H](CC(=O)NCCCN(C)C)C(=O)N2CCc3c([nH]c4cc(-c5ccco5)ccc34)[C@]12C)C(C)C | inconclusive: 20.6 µM [activator, single point]
43 | Cc1ccc(C(=O)n2nnc3ccccc32)cc1[N+](=O)[O-] | inactive
44 | CCCCN(C(=O)c1oc2ccc(OCC)cc2c1C)c1c(N)n(CC(C)C)c(=O)[nH]c1=O | inconclusive: 8.2 µM [activator, partial curve, poor fit]
45 | CCn1ccc(C(=O)Oc2ccc(C(C)C)cc2)n1 | inconclusive: 13 µM [activator, partial curve]
46 | CC(C)c1ccc(NC(=O)COc2ccccc2)cc1 | inconclusive: 20.6 µM [activator, partial curve]
47 | COc1ccc(-n2ncc3c(N4CCC(C)CC4)ncnc32)cc1 | active: 0.259 µM
48 | O=C(CSCC(=O)N1CCN(c2ccccc2)CC1)Nc1nc(-c2ccc(Cl)s2)cs1 | inconclusive: 23.1 µM [activator, single point]
49 | CCc1ccc(Nc2nnc(SCC(=O)NC(=O)c3cccn3C)s2)cc1 | inconclusive: 32.6 µM [activator, partial curve, poor fit]
50 | CC(=O)n1c2ccccc2c2nc(NC(C)C)sc21 | inconclusive: 25.9 µM [activator, partial curve, poor fit]

Row | Structure (SMILES) | Potency
51 | CC(=O)c1cc(NC(=O)c2ccc(C)cc2)c(=O)oc1C | inconclusive: 16.4 µM [activator, partial curve, poor fit]
52 | O=C(Nc1nc2ccc(F)cc2s1)c1cccs1 | inconclusive: 2.59 µM [activator, partial curve, poor fit]
53 | CC(=O)c1ccc(-c2nc3ccccc3n2C)o1 | active: 20.6 µM
54 | Cc1ccc(-n2c(=O)c3sccc3n(CC(=O)NCc3ccco3)c2=O)cc1F | inconclusive: 29.1 µM [activator, single point]
55 | Cc1ccc(Nc2cc(C)c(O)c(C)c2)cc1 | inconclusive: 29.1 µM [activator, partial curve, poor fit]
56 | COc1ccc(/C=N/Nc2nc3ccccc3o2)cc1O | active: 0.92 µM
57 | COC(=O)c1sccc1NC(=O)/C=C/c1ccc(Cl)cc1Cl | inconclusive: 16.4 µM [activator, partial curve]
58 | O=C(CNC(=O)C1CCCCC1)Nc1cc(Cl)cc(Cl)c1 | inactive
59 | CC1Sc2ccc(C(=O)Nc3ccccc3OC(F)F)cc2NC1=O (centres undefined) | inconclusive: 16.4 µM [activator, partial curve]
60 | C(=N\Nc1ccccn1)/c1ccc2c(c1)OCCO2 | active: 2.06 µM
61 | O=C(Cc1ccccc1)n1nc(-c2ccco2)nc1SCc1ccccc1 | inconclusive: 20.6 µM [activator, partial curve]
62 | N#CCC(=O)Nc1ccc(C(=O)NCc2cccc(Cl)c2)cc1 | inactive
63 | O=C(CCN1CCN(c2ccccc2)CC1)N/N=C/c1ccccc1OC(F)F | inactive
64 | CC(C)c1cc(CNC(=O)CCc2nnc(CCCc3ccccc3)o2)on1 | inconclusive: 29.1 µM [activator, partial curve, poor fit]
65 | Fc1ccccc1OCCSc1ncnc2nc[nH]c12 | inconclusive: 23.1 µM [activator, partial curve, poor fit]
66 | CCOc1ccc2[nH]c3c(NCCO)ncnc3c2c1 | inactive
67 | COc1ccc2cc(C#N)c(SCC(=O)N3CCCC3)nc2c1 | inconclusive: 25.9 µM [activator, partial curve, poor fit]
68 | Cc1nn(C)c(C(=O)Nc2ccc(S(=O)(=O)NC34CC5CC(CC(C5)C3)C4)cc2)c1Br | inactive
69 | COC(=O)c1cc(=O)nc2sc(-c3ccccc3)nn12 | inactive
70 | COc1ccc(C(=O)Nn2c(SCC(=O)NC3CCCCC3)nc3ccccc3c2=O)cc1 | inconclusive: 0.251 µM [activator, full curve, poor fit]
71 | COCCNC(=S)NC(=O)c1ccc(C(C)(C)C)cc1 | inconclusive: 16.4 µM [activator, partial curve, poor fit]
72 | COC(=O)[C@]1(CC(C)C)N[C@H](c2ccc(-c3ccc(Cl)c(Cl)c3)cc2)[C@@H]2C(=O)N(C)C(=O)[C@@H]21 | inactive
73 | O=C(Nc1ccc2c(c1)OCCO2)c1cnn(-c2ccccc2)n1 | inconclusive: 16.4 µM [activator, partial curve]
74 | CCN(CC)c1ccc(NC(=O)c2cc3c(OC)cccc3[nH]2)cc1 | inactive
